Test results taken from patent publication US20250326823A1.
Read-outs that look alike come from different tables or passages of the source.

What was measured:
[1] = target: SARS-CoV-2 XBB.1.5 spike (S) protein (SARS-CoV-2); assay: cell-based or functional assay
[2] = target: SARS-CoV-2 XBB.1.5 spike (S) protein (SARS-CoV-2); assay: cell-based or functional assay; remark: listed apart in the source

B1: MX1545 (bispecific antibody)
chain: EIVLTQSPGTLSLSPGETATLSCRASQSFSSDLAWYQQKPGQAPRLLIYGASSRATGIPDRFSGSGSGTDFTLTISRLEPADFAVYYCQQYGSSPPVTFGGGTKVEIKRTVAAPSVFIFPPSDEQLKSGTASVVCLLNNFYPREAKVQWKVDNALQSGNSQESVTEQDSKDSTYSLSSTLTLSKADYEKHKVYACEVTHQGLSSPVTKSFNRGECGGGGSGGGGSGGGGSDTVMTQSPLSLPVTPGEPASISCRSSQSLLNSNGYNYLDWYVQKPGQSPQLLIYLGSNRASGVPDRFSGSGSGTDFTLKISRVEAEDVGVYYCMQPLQTPLFTFGPGTKVEIKGGGGSGGSGSGGGGSASGSGQVTLRESGPALVKPTQTLTLTCTFSGFSLSTRGVCVSWIRQPPGKALEWLAFIDWDDDKYYQTSLKTRLTISKDTSKNQVVLTMTNVHPVDTATYYCARISSHHGSSWCTTFDYWGQGALVTVSAGGSSGEVQLVESGGGLIQPGGSLRLSCAASGVIVSYNYMNWVRQAPGKGLEWVSVIYSGGSTFYADSVRGRFTISRDNSKNTLYLQMNSLRAEDTAVYYCARDLGPAGAFDIWGLGTMVTVSS[sequence of human IgG1 constant region with changes omitted]
[1]
  pseudovirus neutralization IC50: 0.19 nM
  pseudovirus neutralization IC80: 0.22 nM
[2]
  pseudovirus neutralization IC50: 0.17 nM
  pseudovirus neutralization IC80: 0.51 nM
